In article PMC4007762 one finds binding data, which are given here for one molecule.

No constants are given. Whether binding was seen depends on the method and setting. In cells and extracts the contact can be indirect. Tags and fused reporters may be left off the sequences shown.

This assay has as its target T1, GST–PTP-PEST-C231S fusion protein (catalytically inactive trapping mutant) (UniProt Q05209).
T1 sequence: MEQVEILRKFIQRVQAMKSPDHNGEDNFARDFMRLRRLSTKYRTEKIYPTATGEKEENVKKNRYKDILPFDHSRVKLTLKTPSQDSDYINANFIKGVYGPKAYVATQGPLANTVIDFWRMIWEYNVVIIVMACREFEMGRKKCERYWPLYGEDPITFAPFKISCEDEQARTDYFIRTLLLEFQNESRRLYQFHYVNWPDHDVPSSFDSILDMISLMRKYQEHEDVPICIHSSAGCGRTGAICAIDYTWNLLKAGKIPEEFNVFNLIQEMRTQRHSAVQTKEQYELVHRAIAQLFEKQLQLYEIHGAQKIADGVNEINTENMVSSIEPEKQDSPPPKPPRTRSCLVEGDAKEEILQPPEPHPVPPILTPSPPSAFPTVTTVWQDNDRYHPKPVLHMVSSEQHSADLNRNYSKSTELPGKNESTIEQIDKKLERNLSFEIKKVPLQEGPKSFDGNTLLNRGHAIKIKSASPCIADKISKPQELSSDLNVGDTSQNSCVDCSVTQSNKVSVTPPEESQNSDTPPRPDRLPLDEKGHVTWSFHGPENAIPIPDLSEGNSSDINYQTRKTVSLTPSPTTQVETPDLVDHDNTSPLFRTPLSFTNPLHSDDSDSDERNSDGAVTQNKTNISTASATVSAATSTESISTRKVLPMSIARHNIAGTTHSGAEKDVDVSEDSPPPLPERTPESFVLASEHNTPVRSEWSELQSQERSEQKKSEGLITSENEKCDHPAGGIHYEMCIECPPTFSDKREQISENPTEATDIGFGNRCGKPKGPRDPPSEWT
As to the kind of experiment: condition: 10 µg fusion protein per 1 mg of cell lysate; pull-down; substrate trapping: 10 µg GST fusion protein with 1 mg lysate of pervanadate-treated transfected cells (HEK 293T named for Fig. 1B and 6B), modified RIPA buffer, 4°C, 1 hour; western blot with anti-YFP; only the target purified.

B1: YFP–p120-1A Y335F (protein, UniProt P30999 1-938)
chain: MDDSEVESTASILASVKEQEAQFEKLTRALEEERRHVSAQLERVRVSPQDANSLMANGTLTRRHQNGRFVGDADLERQKFSDLKLNGPQDHNHLLYSTIPRMQEPGQIVETYTEEDPEGAMSVVSVETTDDGTTRRTETTVKKVVKTMTTRTVQPVPMGPDGLPVDASAVSNNYIQTLGRDFRKNGNGGPGPYVGQAGTATLPRNFHYPPDGYGRHYEDGYPGGSDNYGSLSRVTRIEERYRPSMEGYRAPSRQDVYGPQPQVRVGGSSVDLHRFHPEPYGLEDDQRSMGYDDLDYGMMSDYGTARRTGTPSDPRRRLRSYEDMIGEEVPPDQYFWAPLAQHERGSLASLDSLRKGMPPPSNWRQPELPEVIAMLGFRLDAVKSNAAAYLQHLCYRNDKVKTDVRKLKGIPILVGLLDHPKKEVHLGACGALKNISFGRDQDNKIAIKNCDGVPALVRLLRKARDMDLTEVITGTLWNLSSHDSIKMEIVDHALHALTDEVIIPHSGWEREPNEDCKPRHIEWESVLTNTAGCLRNVSSERSEARRKLRECDGLVDALIFIVQAEIGQKDSDSKLVENCVCLLRNLSYQVHREIPQAERYQEALPTVANSTGPHAASCFGAKKGKDEWFSRGKKPTEDPANDTVDFPKRTSPARGYELLFQPEVVRIYISLLKESKTPAILEASAGAIQNLCAGRWTYGRYIRSALRQEKALSAIAELLTSEHERVVKAASGALRNLAVDARNKELIGKHAIPNLVKNLPGGQQNSSWNFSEDTVVSILNTINEVIAENLEAAKKLRETQGIEKLVLINKSGNRSEKEVRAAALVLQTIWGYKELRKPLEKEGWKKSDFQVNLNNASRSQSSHSYDDSTLPLIDRNQKSDKKPDREEIPMSNMGSNTKSLDNNYSTLNERGDHNRTLDRSGDLGDMEPLKGAPLMQKI
Take B1: the binding entry was “no binding”.
